Experimental data published in PubChem BioAssay AID493208 (National Center for Advancing Translational Sciences (NCATS), 2011).
Out of some 44,000 compounds screened, about 340 (0.77%) were called active. Inconclusive results (about 5%) are left out. Calls come from the whole dose curve; as a rule, active = well fitted inhibition curve with a large enough effect; inconclusive = small, poorly fitted or top-dose-only effect; inactive = flat fitted curve, though single readings scatter. The list shows a part of the results.

assay: Acumen qHTS Assay for Inhibitors of the mTORC1 Signaling Pathway in MEF (Tsc2-/-, p53-/-) Cells: Sytravon; conditions: phospho-rpS6 immunofluorescence/PI, 24 h; series mostly up to 38.3 µM; activity change, negative = inhibition: at the top concentration;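 note: plate controls were DMSO for no effect and rapamycin for full effect; nearly all actives have a fitted effect of over 50% in size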
Procedure, shortened: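 Tsc2-/-, p53-/- MEFs (empty-vector stable line) in DMEM + 10% FBS were treated with compounds 24 h at 37 degree Celsius, fixed, and immunostained for phospho-rpS6 (Alexa-488) with propidium iodide counterstain. Laser-scanning cytometry gave % positive cells, normalized against 7.5 nM rapamycin and DMSO.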

Activity change, negative = inhibition, inactive:
COc1ccc2nc3oc(C(=O)N(C)c4ccc(Cl)cc4)cc3cc2c1 1%
CCc1nnc(NC(=O)CSc2nccn2Cc2ccc(F)cc2)s1 0%
COc1ccc(N2CCN(CC(O)COc3ccc(C(C)C)c(C)c3)CC2)cc1 (stereo unspecified) -22.9%
COC(=O)c1sc2cccc(F)c2c1S(=O)(=O)N1CCN(c2cccc(C)c2)C(C)C1 (stereo unspecified) -6.23%
Cc1nc2ccc(S(=O)(=O)N(CC(=O)Nc3ccc(F)cc3)Cc3ccccc3)cc2s1 2.96%
CC1CCc2c(sc(NC(=O)CCCOc3ccccc3)c2C(N)=O)C1 (stereo unspecified) -11.1%
CC(C)(C)OC(=O)N1CCC(c2c(C(=O)N3CCN(C(=O)c4ccco4)CC3)cnn2-c2ccc(F)cc2F)CC1 2.02%
CCOc1ccc(-n2nc3ccc(NC(=O)Cc4ccccc4)cc3n2)cc1 2.21%
CCCOC(=O)c1c(NC(=O)c2cc3ccccc3c(=O)o2)sc2c1CCC(C)C2 (stereo unspecified) -2.5%
COC(=O)c1ccc(Cn2nnc3c(=O)[nH]c(C4CCCN(S(=O)(=O)c5ccccc5Cl)C4)nc32)cc1 (stereo unspecified) 5.14%
Cc1ccc(-c2nnc3c4ccccc4c(C)nn23)cc1NC(=O)c1ccccc1 -2.5%
COc1ccc(-c2cn3c(C)c(C(=O)Nc4cc(C)cc(C)c4)sc3n2)cc1 -3.58%
CCc1ccccc1-n1c(N)c(C(=O)OC)c2nc3ccccc3nc21 0.238%
CCc1cccc(NC(=O)CN(C)S(=O)(=O)c2ccc3[nH]c4c(c3c2)CCCC4)c1 3.32%
COc1cc(NC(=O)c2nnn(CC(=O)Nc3cc(C)ccc3C)c2N)cc(OC)c1 -6.78%
CCOc1cc(C(=O)Nc2ccc3c(c2)n(C)c(=O)c(=O)n3C)cc(OCC)c1OCC 1.89%
CCOc1ccc(-n2c(SCC(=O)Nc3ccc(CC)cc3)nc3c(oc4ccccc43)c2=O)cc1 -20%
O=C(Nc1ccc(OC(F)(F)F)cc1)c1noc2c1CCCC2 0.51%
CCOC(=O)CCc1c(C)nc2cc(-c3cc(OC)cc(OC)c3)[nH]n2c1=O 6.53%
COc1cc(NC(=O)c2cc(-c3cccc(OC)c3)n[nH]2)cc(OC)c1 -17.3%
COC(=O)c1ccc(NC(=O)CC2C(=O)N(c3cccc(OC)c3)C(=O)N2C(C)C)cc1 (stereo unspecified) -1.9%
CCOC(=O)c1c(C)oc2ncnc(Nc3cc(C)cc(C)c3)c12 0.561%
O=C(NCCc1csc2nc(-c3ccccc3F)nn12)C(=O)Nc1cc(F)ccc1F -2.2%
CCC1=C(c2ccc(C)cc2)S(=O)(=O)N=C1N1CCC(C(=O)NCc2ccc(N(C)C)cc2)CC1 -2.96%
CCN1C(=O)c2ccccc2Sc2ccc(NC(=O)Nc3cccc([N+](=O)[O-])c3C)cc21 -20.8%
COc1ccc(N(C(=O)c2ccc(C(C)(C)C)cc2)S(=O)(=O)c2ccc(Cl)cc2)cc1 18%
